The supplement of paper PMC8728848
Some of the results follow.

Legend:
Assay in all cases: glycan array binding signal (z-score within array); higher = stronger binding
Settings in all cases: glycan notation: IUPAC condensed, linker removed
[1] = molecular target: GlcNAc(b1-3)[GlcNAc(b1-6)]GalNAc
Outline: (§1)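 From the Consortium for Functional Glycomics database, 3228 arrays were curated, keeping only those whose protein sequence was available. Binding is given as a within-array Z-score averaged across arrays sharing a protein sequence and across linkers. Negative Z-scores can be read as non-binding.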

[2] = molecular target: GlcNAc(b1-4)Gal(b1-4)GlcNAc
Outline: as §1

GlcNAc(b1-4)GlcNAc = molecular target: GlcNAc(b1-4)GlcNAc
Outline: as §1

[3] = molecular target: GlcNAc(b1-4)GlcNAc(b1-4)GlcNAc
Outline: as §1

[4] = molecular target: GlcNAc(b1-4)GlcNAc(b1-4)GlcNAc(b1-4)GlcNAc(b1-4)GlcNAc
Outline: as §1

[5] = molecular target: GlcNAc(b1-4)GlcNAc(b1-4)GlcNAc(b1-4)GlcNAc(b1-4)GlcNAc(b1-4)GlcNAc
Outline: as §1

[6] = molecular target: GlcNAc(b1-4)[GlcNAc(b1-6)]GalNAc
Outline: as §1

[7] = molecular target: GlcNAc(b1-6)Gal(b1-4)GlcNAc
Outline: as §1

GlcNAc(b1-6)GalNAc = molecular target: GlcNAc(b1-6)GalNAc
Outline: as §1

GlcNAc3Prop(b1-4)GlcNAc = molecular target: GlcNAc3Prop(b1-4)GlcNAc
Outline: as §1

[8] = molecular target: GlcNAc6S(b1-3)Gal(b1-4)GlcNAc
Outline: as §1

Kdn(a2-3)Gal(b1-3)GalNAc = molecular target: Kdn(a2-3)Gal(b1-3)GalNAc
Outline: as §1

Kdn(a2-3)Gal(b1-3)GlcNAc = molecular target: Kdn(a2-3)Gal(b1-3)GlcNAc
Outline: as §1

Kdn(a2-3)Gal(b1-4)Glc = molecular target: Kdn(a2-3)Gal(b1-4)Glc
Outline: as §1

Kdn(a2-3)Gal(b1-4)GlcNAc = molecular target: Kdn(a2-3)Gal(b1-4)GlcNAc
Outline: as §1

[9] = molecular target: Kdn(a2-3)Gal(b1-4)[Fuc(a1-3)]GlcNAc
Outline: as §1

Kdn(a2-6)Gal(b1-4)GlcNAc = molecular target: Kdn(a2-6)Gal(b1-4)GlcNAc
Outline: as §1

[10] = molecular target: Man(a1-2)Man(a1-2)Man(a1-3)Man
Outline: as §1

[11] = molecular target: Man(a1-2)Man(a1-2)Man(a1-6)[Man(a1-3)]Man
Outline: as §1

Man(a1-2)Man(a1-3)Man = molecular target: Man(a1-2)Man(a1-3)Man
Outline: as §1

[12] = molecular target: Man(a1-2)Man(a1-3)[Man(a1-2)Man(a1-6)]Man
Outline: as §1

[13] = molecular target: Man(a1-2)Man(a1-3)[Man(a1-2)Man(a1-6)]Man(a1-6)[Man(a1-2)Man(a1-2)Man(a1-3)]Man
Outline: as §1

[14] = molecular target: Man(a1-2)Man(a1-3)[Man(a1-2)Man(a1-6)]Man(a1-6)[Man(a1-2)Man(a1-2)Man(a1-3)]Man(b1-4)GlcNAc(b1-4)GlcNAc
Outline: as §1

[15] = molecular target: Man(a1-2)Man(a1-3)[Man(a1-6)]Man(a1-6)[Man(a1-2)Man(a1-3)]Man(b1-4)GlcNAc(b1-4)GlcNAc
Outline: as §1

[16] = molecular target: Man(a1-2)Man(a1-6)[Man(a1-3)]Man(a1-6)[Man(a1-2)Man(a1-2)Man(a1-3)]Man
Outline: as §1

[17] = molecular target: Man(a1-2)Man(a1-6)[Man(a1-3)]Man(a1-6)[Man(a1-2)Man(a1-2)Man(a1-3)]Man(b1-4)GlcNAc(b1-4)GlcNAc
Outline: as §1

Man(a1-3)[Man(a1-6)]Man = molecular target: Man(a1-3)[Man(a1-6)]Man
Outline: as §1

[18] = molecular target: Man(a1-3)[Man(a1-6)]Man(a1-6)[Man(a1-2)Man(a1-3)]Man(b1-4)GlcNAc(b1-4)GlcNAc
Outline: as §1

[19] = molecular target: Man(a1-3)[Man(a1-6)]Man(a1-6)[Man(a1-3)]Man
Outline: as §1

[20] = molecular target: Man(a1-3)[Man(a1-6)]Man(a1-6)[Man(a1-3)]Man(b1-4)GlcNAc(b1-4)GlcNAc
Outline: as §1

[21] = molecular target: Man(a1-3)[Man(a1-6)]Man(b1-4)GlcNAc(b1-4)GlcNAc
Outline: as §1

[22] = molecular target: Man(a1-3)[Man(a1-6)]Man(b1-4)GlcNAc(b1-4)[Fuc(a1-6)]GlcNAc
Outline: as §1

Man(a1-6)Man = molecular target: Man(a1-6)Man
Outline: as §1

Man(b1-4)GlcNAc = molecular target: Man(b1-4)GlcNAc
Outline: as §1

Neu5Ac(a2-3)Gal = molecular target: Neu5Ac(a2-3)Gal
Outline: as §1

[23] = molecular target: Neu5Ac(a2-3)Gal(b1-3)GalNAc
Outline: as §1

[24] = molecular target: Neu5Ac(a2-3)Gal(b1-3)GalNAc(b1-3)Gal(a1-4)Gal(b1-4)Glc
Outline: as §1

[25] = molecular target: Neu5Ac(a2-3)Gal(b1-3)GalNAc(b1-3)Gal(b1-4)GlcNAc
Outline: as §1

[26] = molecular target: Neu5Ac(a2-3)Gal(b1-3)GalNAc(b1-4)[Neu5Ac(a2-3)]Gal(b1-4)Glc
Outline: as §1

[27] = molecular target: Neu5Ac(a2-3)Gal(b1-3)GalNAc(b1-4)[Neu5Ac(a2-8)Neu5Ac(a2-3)]Gal(b1-4)Glc
Outline: as §1

[28] = molecular target: Neu5Ac(a2-3)Gal(b1-3)GalNAc6S
Outline: as §1

[29] = molecular target: Neu5Ac(a2-3)Gal(b1-3)GlcNAc
Outline: as §1

[30] = molecular target: Neu5Ac(a2-3)Gal(b1-3)GlcNAc(b1-2)Man(a1-3)[GlcNAc(b1-4)][Neu5Ac(a2-3)Gal(b1-3)GlcNAc(b1-2)Man(a1-6)]Man(b1-4)GlcNAc(b1-4)GlcNAc
Outline: as §1

[31] = molecular target: Neu5Ac(a2-3)Gal(b1-3)GlcNAc(b1-3)Gal(b1-3)GlcNAc
Outline: as §1

[32] = molecular target: Neu5Ac(a2-3)Gal(b1-3)GlcNAc(b1-3)Gal(b1-4)GlcNAc
Outline: as §1

B1: Calsepa (Calystegia sepium), P93114 (protein)
chain: MAVPMDTISGPWGNNGGNFWSFRPVNKINQIVISYGGGGNNPIALTFSSTKADGSKDTITVGGGGPDSITGTEMVNIGTDEYLTGISGTFGIYLDNNVLRSITFTTNLKAHGPYGQKVGTPFSSANVVGNEIVGFLGRSGYYVDAIGTYNRHK
- glycan array binding signal (z-score) [1]: -0.257
- glycan array binding signal (z-score) [2]: -0.244
- glycan array binding signal (z-score) (GlcNAc(b1-4)GlcNAc): -0.251
- glycan array binding signal (z-score) [3]: -0.243
- glycan array binding signal (z-score) [4]: -0.25
- glycan array binding signal (z-score) [5]: -0.247
- glycan array binding signal (z-score) [6]: -0.255
- glycan array binding signal (z-score) [7]: -0.248
- glycan array binding signal (z-score) (GlcNAc(b1-6)GalNAc): -0.256
- glycan array binding signal (z-score) (GlcNAc3Prop(b1-4)GlcNAc): -0.246
- glycan array binding signal (z-score) [8]: -0.246
- glycan array binding signal (z-score) (Kdn(a2-3)Gal(b1-3)GalNAc): -0.123
- glycan array binding signal (z-score) (Kdn(a2-3)Gal(b1-3)GlcNAc): -0.251
- glycan array binding signal (z-score) (Kdn(a2-3)Gal(b1-4)Glc): -0.249
- glycan array binding signal (z-score) (Kdn(a2-3)Gal(b1-4)GlcNAc): -0.25
- glycan array binding signal (z-score) [9]: -0.237
- glycan array binding signal (z-score) (Kdn(a2-6)Gal(b1-4)GlcNAc): -0.252
- glycan array binding signal (z-score) [10]: -0.252
- glycan array binding signal (z-score) [11]: -0.252
- glycan array binding signal (z-score) (Man(a1-2)Man(a1-3)Man): -0.248
- glycan array binding signal (z-score) [12]: -0.251
- glycan array binding signal (z-score) [13]: -0.254
- glycan array binding signal (z-score) [14]: -0.208
- glycan array binding signal (z-score) [15]: -0.239
- glycan array binding signal (z-score) [16]: -0.239
- glycan array binding signal (z-score) [17]: -0.242
- glycan array binding signal (z-score) (Man(a1-3)[Man(a1-6)]Man): -0.244
- glycan array binding signal (z-score) [18]: 0.764
- glycan array binding signal (z-score) [19]: -0.185
- glycan array binding signal (z-score) [20]: 0.986
- glycan array binding signal (z-score) [21]: 3.5
- glycan array binding signal (z-score) [22]: 0.063
- glycan array binding signal (z-score) (Man(a1-6)Man): -0.251
- glycan array binding signal (z-score) (Man(b1-4)GlcNAc): -0.253
- glycan array binding signal (z-score) (Neu5Ac(a2-3)Gal): -0.245
- glycan array binding signal (z-score) [23]: -0.247
- glycan array binding signal (z-score) [24]: -0.241
- glycan array binding signal (z-score) [25]: -0.172
- glycan array binding signal (z-score) [26]: -0.252
- glycan array binding signal (z-score) [27]: -0.274
- glycan array binding signal (z-score) [28]: -0.246
- glycan array binding signal (z-score) [29]: -0.242
- glycan array binding signal (z-score) [30]: 0.993
- glycan array binding signal (z-score) [31]: -0.243
- glycan array binding signal (z-score) [32]: -0.276
